Some of the results follow.
Assays:
Assay in all cases: glycan array binding signal (z-score within array); higher = stronger binding
Settings in all cases: glycan notation: IUPAC condensed, linker removed
[1] = molecular target: Fuc(a1-2)Gal
How it was run: (§1)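 Glycan array data came from 3228 arrays in the Consortium for Functional Glycomics database, and only arrays with an available protein sequence were kept. Glycan names were put into IUPAC-condensed notation, and columns mapping to the same glycan were averaged. The binding signal is a within-array Z-score, averaged across arrays of one protein sequence run at different concentrations or buffers and across linkers. A negative Z-score can be read as non-binding.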

[2] = molecular target: Fuc(a1-2)Gal(b1-3)GalNAc
How it was run: as §1

[3] = molecular target: Fuc(a1-2)Gal(b1-3)GalNAc(b1-3)Gal
How it was run: as §1

[4] = molecular target: Fuc(a1-2)Gal(b1-3)GalNAc(b1-3)Gal(a1-4)Gal(b1-4)Glc
How it was run: as §1

[5] = molecular target: Fuc(a1-2)Gal(b1-3)GalNAc(b1-3)Gal(b1-4)Glc
How it was run: as §1

[6] = molecular target: Fuc(a1-2)Gal(b1-3)GalNAc(b1-4)[Neu5Ac(a2-3)]Gal(b1-4)Glc
How it was run: as §1

[7] = molecular target: Fuc(a1-2)Gal(b1-3)[Fuc(a1-4)]GlcNAc
How it was run: as §1

[8] = molecular target: Fuc(a1-2)Gal(b1-4)Glc
How it was run: as §1

[9] = molecular target: Fuc(a1-2)Gal(b1-4)GlcNAc
How it was run: as §1

[10] = molecular target: Fuc(a1-2)Gal(b1-4)GlcNAc(b1-3)Gal(b1-4)GlcNAc
How it was run: as §1

[11] = molecular target: Fuc(a1-2)Gal(b1-4)GlcNAc(b1-3)Gal(b1-4)GlcNAc(b1-3)Gal(b1-4)GlcNAc
How it was run: as §1

[12] = molecular target: Fuc(a1-2)Gal(b1-4)[Fuc(a1-3)]GalNAc(b1-3)Gal(b1-4)[Fuc(a1-3)]GlcNAc
How it was run: as §1

[13] = molecular target: Fuc(a1-2)Gal(b1-4)[Fuc(a1-3)]GalNAc(b1-3)Gal(b1-4)[Fuc(a1-3)]GlcNAc(b1-3)Gal(b1-4)[Fuc(a1-3)]GalNAc
How it was run: as §1

[14] = molecular target: Fuc(a1-2)Gal(b1-4)[Fuc(a1-3)]GlcNAc
How it was run: as §1

[15] = molecular target: Fuc(a1-2)GlcNAc
How it was run: as §1

[16] = molecular target: Fuc(a1-2)[Gal(a1-3)]Gal
How it was run: as §1

[17] = molecular target: Fuc(a1-2)[Gal(a1-3)]Gal(b1-3)GlcNAc
How it was run: as §1

[18] = molecular target: Fuc(a1-2)[Gal(a1-3)]Gal(b1-4)Glc
How it was run: as §1

[19] = molecular target: Fuc(a1-2)[Gal(a1-3)]Gal(b1-4)GlcNAc
How it was run: as §1

[20] = molecular target: Fuc(a1-2)[Gal(a1-3)]Gal(b1-4)[Fuc(a1-3)]GlcNAc
How it was run: as §1

[21] = molecular target: Fuc(a1-2)[Gal(a1-4)]Gal(b1-4)GalNAc
How it was run: as §1

[22] = molecular target: Fuc(a1-2)[GalNAc(a1-3)]Gal
How it was run: as §1

[23] = molecular target: Fuc(a1-2)[GalNAc(a1-3)]Gal(b1-3)GlcNAc
How it was run: as §1

[24] = molecular target: Fuc(a1-2)[GalNAc(a1-3)]Gal(b1-4)Glc
How it was run: as §1

[25] = molecular target: Fuc(a1-2)[GalNAc(a1-3)]Gal(b1-4)GlcNAc
How it was run: as §1

[26] = molecular target: Fuc(a1-2)[GalNAc(a1-3)]Gal(b1-4)[Fuc(a1-3)]GlcNAc
How it was run: as §1

[27] = molecular target: Fuc(a1-2)[GalNAc(a1-4)]Gal(b1-4)GlcNAc
How it was run: as §1

[28] = molecular target: Fuc(a1-3)GlcNAc
How it was run: as §1

[29] = molecular target: Fuc(a1-3)[Gal(b1-4)]GlcNAc
How it was run: as §1

[30] = molecular target: Fuc(a1-3)[Gal(b1-4)]GlcNAc(b1-4)Gal(b1-4)[Fuc(a1-3)]GlcNAc
How it was run: as §1

[31] = molecular target: Fuc(a1-3)[Gal(b1-4)]GlcNAc(b1-4)Gal(b1-4)[Fuc(a1-3)]GlcNAc(b1-4)Gal(b1-4)[Fuc(a1-3)]GlcNAc
How it was run: as §1

[32] = molecular target: Fuc(a1-3)[Gal3S(b1-4)]GlcNAc
How it was run: as §1

[33] = molecular target: Fuc(a1-3)[GalNAc(b1-4)]Gal(b1-4)GlcNAc
How it was run: as §1

[34] = molecular target: Fuc(a1-4)GlcNAc
How it was run: as §1

[35] = molecular target: Fuc(b1-3)GlcNAc
How it was run: as §1

[36] = molecular target: Gal(a1-2)Gal
How it was run: as §1

[37] = molecular target: Gal(a1-3)Gal
How it was run: as §1

[38] = molecular target: Gal(a1-3)Gal(b1-3)Glc
How it was run: as §1

[39] = molecular target: Gal(a1-3)Gal(b1-3)GlcNAc
How it was run: as §1

[40] = molecular target: Gal(a1-3)Gal(b1-4)GlcNAc
How it was run: as §1

[41] = molecular target: Gal(a1-3)Gal(b1-4)[Fuc(a1-3)]GalNAc
How it was run: as §1

[42] = molecular target: Gal(a1-3)GlcNAc
How it was run: as §1

[43] = molecular target: Gal(a1-3)[Gal(a1-4)]Gal(b1-4)GlcNAc
How it was run: as §1

[44] = molecular target: Gal(a1-4)Gal(b1-4)Gal
How it was run: as §1

[45] = molecular target: Gal(a1-4)Gal(b1-4)GalNAc
How it was run: as §1

B1: RNase 1 (Homo sapiens) (protein)
chain: KESRAKKFQRQHMDSDSSPSSSSTYCNQMMRRRNMTQGRCKPVNTFVHEPLVDVQNVCFQEKVTCKNGQGNCYKSNSSMHITDCRLTNGSRYPNCAYRTSPKERHIIVACEGSPYVPVHFDASVEDST
With B1 the “glycan array binding signal (z-score)” value [1] was -0.156, the “glycan array binding signal (z-score)” value [2] was -0.157 and the “glycan array binding signal (z-score)” value [3] was -0.195. The “glycan array binding signal (z-score)” value [4] was 1.93, the “glycan array binding signal (z-score)” value [5] was -0.138 and the “glycan array binding signal (z-score)” value [6] was -0.19. For the same binder, the “glycan array binding signal (z-score)” value [7] was -0.174, the “glycan array binding signal (z-score)” value [8] was -0.104 and the “glycan array binding signal (z-score)” value [9] was -0.178. For the same binder, the “glycan array binding signal (z-score)” value [10] was -0.225, the “glycan array binding signal (z-score)” value [11] was -0.177 and the “glycan array binding signal (z-score)” value [12] was -0.193. The “glycan array binding signal (z-score)” value [13] was -0.138, the “glycan array binding signal (z-score)” value [14] was -0.212 and the “glycan array binding signal (z-score)” value [15] was -0.17. For the same binder, the “glycan array binding signal (z-score)” value [16] was -0.14, the “glycan array binding signal (z-score)” value [17] was -0.126 and the “glycan array binding signal (z-score)” value [18] was -0.211. For the same binder, the “glycan array binding signal (z-score)” value [19] was -0.134, the “glycan array binding signal (z-score)” value [20] was -0.168 and the “glycan array binding signal (z-score)” value [21] was 0.238. For the same binder, the “glycan array binding signal (z-score)” value [22] was -0.151, the “glycan array binding signal (z-score)” value [23] was -0.241 and the “glycan array binding signal (z-score)” value [24] was -0.171. For the same binder, the “glycan array binding signal (z-score)” value [25] was -0.167, the “glycan array binding signal (z-score)” value [26] was -0.057 and the “glycan array binding signal (z-score)” value [27] was -0.213. The “glycan array binding signal (z-score)” value [28] was -0.013, the “glycan array binding signal (z-score)” value [29] was -0.227 and the “glycan array binding signal (z-score)” value [30] was -0.08. The “glycan array binding signal (z-score)” value [31] was -0.074, the “glycan array binding signal (z-score)” value [32] was -0.168 and the “glycan array binding signal (z-score)” value [33] was -0.22. The “glycan array binding signal (z-score)” value [34] was -0.217, the “glycan array binding signal (z-score)” value [35] was -0.234 and the “glycan array binding signal (z-score)” value [36] was -0.153. The “glycan array binding signal (z-score)” value [37] was -0.208, the “glycan array binding signal (z-score)” value [38] was -0.212 and the “glycan array binding signal (z-score)” value [39] was -0.213. The “glycan array binding signal (z-score)” value [40] was -0.254, the “glycan array binding signal (z-score)” value [41] was -0.199 and the “glycan array binding signal (z-score)” value [42] was -0.175. For the same binder, the “glycan array binding signal (z-score)” value [43] was -0.158, the “glycan array binding signal (z-score)” value [44] was 7.93 and the “glycan array binding signal (z-score)” value [45] was 8.87.
